{
  "source": "PubChem BioAssay AID2147",
  "about": "(National Center for Advancing Translational Sciences (NCATS), 2009)",
  "note": "In all, about 230,000 compounds went through this assay and about 3,600 (1.6%) were called active. The shares of active, inactive and inconclusive entries below differ from those in the screen. Calls follow the shape of the dose curve; as a rule, active = well fitted inhibition curve with a large enough effect (not every such curve was filed as active); inconclusive = small, poorly fitted or top-dose-only effect, or another doubt; inactive = no such curve, though single readings can be large or run the other way. Potencies of inconclusive entries are doubtful fits and often do not repeat. Also: nearly all actives have a fitted effect of over 50% in size.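 For activity change, negative = inhibition in this document: 0% = wells with enzyme and -100% = buffer wells without enzyme.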 Potency is read from the fitted curve at half-maximal effect; tags tell the direction and shape of the fitted curve.",
  "data": [
    {"target": "Lysine-specific demethylase 4E (Homo sapiens) (UniProt B2RXH2)", "sequence (B2RXH2 whole entry, looked up, the tested form may be a part)": "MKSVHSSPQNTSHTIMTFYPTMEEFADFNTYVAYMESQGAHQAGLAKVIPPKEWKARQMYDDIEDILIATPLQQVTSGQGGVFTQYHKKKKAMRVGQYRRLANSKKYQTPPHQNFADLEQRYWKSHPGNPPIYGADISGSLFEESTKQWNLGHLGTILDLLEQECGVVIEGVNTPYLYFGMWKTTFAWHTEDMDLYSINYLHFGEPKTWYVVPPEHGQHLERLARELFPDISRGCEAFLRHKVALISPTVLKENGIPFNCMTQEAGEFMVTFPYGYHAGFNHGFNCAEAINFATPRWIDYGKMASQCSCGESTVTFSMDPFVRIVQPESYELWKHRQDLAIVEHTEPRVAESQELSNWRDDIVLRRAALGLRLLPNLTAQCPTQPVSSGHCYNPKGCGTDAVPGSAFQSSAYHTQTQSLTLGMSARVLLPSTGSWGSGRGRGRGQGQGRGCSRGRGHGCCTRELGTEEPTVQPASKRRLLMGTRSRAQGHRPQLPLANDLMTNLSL", "assay": "qHTS Assay for Inhibitors of Human Jumonji Domain Containing 2E (JMJD2E)", "conditions": "JMJD2E catalytic domain, FDH-coupled NADH fluorescence (FDH is formaldehyde dehydrogenase); series mostly up to 57.1 µM; activity change, negative = inhibition: at the top concentration", "values": [
      {"smiles": "CCOC(=O)N1CCN(C(=O)Nc2cccc3ccccc23)CC1", "Potency": "inconclusive: 25.1 µM [inhibitor, partial curve]"},
      {"smiles": "c1ccc(-c2n[nH]c(-c3ccccc3)c2-c2nc3ccccc3[nH]2)cc1", "Potency": "inconclusive: 39.8 µM [inhibitor, single point]"},
      {"smiles": "O=C(/C=C/c1ccccc1)Oc1ccc(C(=S)N2CCOCC2)cc1", "activity change, negative = inhibition": "inactive: 18%"},
      {"smiles": "COCCCN(CC(=O)Nc1ccc(N2CCOCC2)cc1)S(=O)(=O)c1ccccc1", "activity change, negative = inhibition": "inactive: -9.4%"},
      {"smiles": "COc1cc(/C=C/C(=O)OCC(=O)NC(=O)NCc2ccccc2)ccc1OCC#N", "Potency": "inconclusive: 25.1 µM [inhibitor, partial curve]"},
      {"smiles": "CCCCCCCCCS(=O)(=O)Nc1cc(C)ccn1", "Potency": "inconclusive: 2.82 µM [inhibitor, partial curve]"},
      {"smiles": "c1ccc(-c2ccc(-c3nc(-c4ccccn4)no3)cc2)cc1", "Potency": "inconclusive: 31.6 µM [inhibitor, partial curve]"},
      {"smiles": "O=C(Nc1nnc(-c2ccccc2)o1)c1nc2ccccc2s1", "Potency": "inconclusive: 25.1 µM [inhibitor, single point]"},
      {"smiles": "CC(=O)CSc1nsc(SCC(C)=O)c1C#N", "activity change, negative = inhibition": "inactive: -9.55%"},
      {"smiles": "Brc1cc2c(cc1/C=N/Nc1nc(N3CCCC3)nc(N3CCOCC3)n1)OCO2", "activity change, negative = inhibition": "inactive: -1.61%"},
      {"smiles": "N#Cc1nc(-c2ccco2)oc1N1CCC(C(N)=O)CC1", "Potency": "active: 3.55 µM"},
      {"smiles": "CC(OC(=O)c1ccc2c(=O)n3c(nc2c1)CCC3)C(N)=O", "note": "(stereo not drawn)", "Potency": "inconclusive: 39.8 µM [inhibitor, single point]"},
      {"smiles": "CCCCOc1ccc(/C(O)=C2/C(=O)C(=O)N(Cc3cccnc3)C2c2ccncc2)c(C)c1", "note": "(stereo not drawn)", "Potency": "inconclusive: 39.8 µM [inhibitor, single point]"},
      {"smiles": "Cc1cc(C)n2nc(C(F)(F)F)c(-c3ccccc3)c2n1", "Potency": "inconclusive: 22.4 µM [inhibitor, partial curve]"},
      {"smiles": "Cc1ccccc1-n1c(=O)[nH]c(=O)c2c(N)c(C(=O)c3ccc(Cl)cc3)sc21", "Potency": "inconclusive: 8.91 µM [inhibitor, single point]"},
      {"smiles": "COCCNc1ccc(S(=O)(=O)N2CCCC2)cn1", "Potency": "inconclusive: 39.8 µM [inhibitor, single point]"},
      {"smiles": "Cc1cc(C(=O)Nc2ccc(N3CCOCC3)c(Cl)c2)c(C)o1", "activity change, negative = inhibition": "inactive: -4.05%"},
      {"smiles": "Cc1ccc2[nH]c(=O)c(CN(Cc3ccco3)C(=O)N3CCOCC3)cc2c1", "Potency": "inconclusive: 25.1 µM [inhibitor, single point]"},
      {"smiles": "Brc1ccccc1OCCOCCOc1cccc2cccnc12", "Potency": "inconclusive: 17.8 µM [inhibitor, partial curve]"},
      {"smiles": "Cc1ccc(-c2csc3ncn(CC#N)c(=O)c23)cc1", "activity change, negative = inhibition": "inactive: -1.34%"},
      {"smiles": "CCCCCCCc1nn2c(=O)cc(O)nc2s1", "Potency": "inconclusive: 11.2 µM [inhibitor, partial curve]"},
      {"smiles": "COc1ccccc1OCC(=O)/C=C1/N(C)c2ccccc2C1(C)C", "Potency": "inconclusive: 22.4 µM [inhibitor, partial curve]"},
      {"smiles": "COc1cc(/C=N/NC(N)=O)ccc1OC(=O)c1ccc(C)cc1", "activity change, negative = inhibition": "inactive: 5.53%"},
      {"smiles": "CCOc1ccc(-c2nc(CSc3nncs3)cs2)cc1OC", "Potency": "inconclusive: 28.2 µM [inhibitor, single point]"},
      {"smiles": "CN(C)S(=O)(=O)c1ccc(N2CCN(S(=O)(=O)c3ccc(F)cc3)CC2)c(Cl)c1", "activity change, negative = inhibition": "inactive: 12.6%"},
      {"smiles": "Nc1ccc2nc(CN3CCOCC3)[nH]c2c1", "Potency": "inconclusive: 28.2 µM [inhibitor, single point]"},
      {"smiles": "COc1ccccc1NC(=S)NCc1ccc(S(N)(=O)=O)cc1", "activity change, negative = inhibition": "inactive: 10.3%"},
      {"smiles": "Cc1ccnc(N=Cc2nc(-c3ccccc3Br)oc2O)c1", "Potency": "inconclusive: 39.8 µM [inhibitor, single point]"},
      {"smiles": "COC(=O)c1ccc(NC(=O)c2cn(-c3ccccc3)nc2-c2ccncc2)cc1", "Potency": "inconclusive: 35.5 µM [inhibitor, single point]"},
      {"smiles": "O=C(Nc1ccc(Cl)cc1Cl)NC1CCN(S(=O)(=O)c2ccc(F)cc2)CC1", "activity change, negative = inhibition": "inactive: -6.36%"},
      {"smiles": "Cc1ccc2cc(C)c(Sc3nnnn3-c3ccccc3)nc2c1", "activity change, negative = inhibition": "inactive: 9.33%"},
      {"smiles": "CCOC(=O)C1=C(C)NC(C)=C(C(=O)OCC)C1c1ccc(O)cc1", "Potency": "inconclusive: 35.5 µM [inhibitor, single point]"},
      {"smiles": "COc1ccc(-n2c3c(cc(C(=O)NNc4ccccc4C)c2=O)C(=O)CC(C)(C)C3)cc1", "activity change, negative = inhibition": "inactive: 4.6%"},
      {"smiles": "COC(=O)CCC(=O)OC1(C)C(=O)C2=CN(c3ccc(OC)cc3)C(c3ccc(OC)cc3)=CC2=C(Br)C1=O", "note": "(stereo not drawn)", "activity change, negative = inhibition": "inactive: -18.5% [at 11.4 µM]"},
      {"smiles": "CC1CC(C)CN(C2CCN(Cc3cccnc3)CC2)C1", "note": "(stereo not drawn)", "Potency": "inconclusive: 28.2 µM [inhibitor, single point]"},
      {"smiles": "CCOc1ccc2nc(C)cc(C(=O)O)c2c1", "Potency": "inconclusive: 31.6 µM [inhibitor, partial curve]"},
      {"smiles": "COc1ccccc1Nc1nc(NCc2ccco2)c2ccccc2n1", "Potency": "inconclusive: 35.5 µM [inhibitor, single point]"},
      {"smiles": "CCOC(=O)/C(C#N)=N/Nc1c(C)n(C)n(-c2ccccc2)c1=O", "Potency": "inconclusive: 31.6 µM [inhibitor, single point]"},
      {"smiles": "CCOC(=O)c1cnc2c(-c3ccccc3)cnn2c1N", "Potency": "inconclusive: 22.4 µM [inhibitor, partial curve]"},
      {"smiles": "COc1ccc(OC)c(C2C(C(=O)c3cccs3)=C(O)C(=O)N2CCN(C)C)c1", "note": "(stereo not drawn)", "Potency": "inconclusive: 39.8 µM [inhibitor, single point]"},
      {"smiles": "COc1cccc(CNC(=O)C2CCN(S(=O)(=O)c3c(C)nn(C)c3C)CC2)c1", "activity change, negative = inhibition": "inactive: 8.71%"},
      {"smiles": "COc1ccc2[nH]c(C)c(CN3CCC(C)CC3)c(=O)c2c1", "Potency": "inconclusive: 22.4 µM [inhibitor, partial curve]"},
      {"smiles": "CCOc1ccc(NC(=S)Nc2cc(OC)c(Cl)cc2OC)cc1", "Potency": "inconclusive: 39.8 µM [inhibitor, single point]"},
      {"smiles": "c1ccc(-c2cc(-c3ccc(N4CCOCC4)cc3)nc3ccccc23)cc1", "Potency": "inconclusive: 31.6 µM [inhibitor, partial curve]"},
      {"smiles": "Cc1ccc2c(c1)c1ncnc(N3CCN(c4ccccc4)CC3)c1n2C", "Potency": "inconclusive: 31.6 µM [inhibitor, single point]"},
      {"smiles": "CCOC(=O)c1c(-c2ccc(C)cc2)csc1NC(=O)CCSc1nnc2ccccn12", "Potency": "inconclusive: 0.794 µM [inhibitor, full curve]"},
      {"smiles": "CCCOc1ccc(Br)cc1-c1cc(-c2ccc(Cl)cc2)[nH]c1-c1ccncc1", "Potency": "inconclusive: 7.94 µM [inhibitor, partial curve]"},
      {"smiles": "COc1ccccc1OCC#CCNC1CCCCC1C", "note": "(stereo not drawn)", "Potency": "inconclusive: 22.4 µM [inhibitor, single point]"},
      {"smiles": "Cc1nn(-c2cccc(Cl)c2)c2c1C(c1ccncc1)C(C#N)=C(N)O2", "note": "(stereo not drawn)", "Potency": "inconclusive: 39.8 µM [inhibitor, single point]"},
      {"smiles": "OCCCCc1nccc2c1[nH]c1ccccc12", "Potency": "inconclusive: 28.2 µM [inhibitor, partial curve]"},
      {"smiles": "O=C(c1ccc(S(=O)(=O)Cc2cc(F)ccc2F)c([N+](=O)[O-])c1)N1CCCCC1", "activity change, negative = inhibition": "inactive: -1.79%"},
      {"smiles": "CCCCCCCCOc1ccc(C2OC34CCCCC3C(C#N)(C#N)C2(C#N)C(=N)O4)cc1", "note": "(stereo not drawn)", "Potency": "inconclusive: 31.6 µM [inhibitor, partial curve]"},
      {"smiles": "CCOC(=O)c1nn(-c2ccc3ccccc3c2)cc1O", "Potency": "inconclusive: 28.2 µM [inhibitor, partial curve]"},
      {"smiles": "O=S(=O)(Nc1ccc(-c2cn3cccnc3n2)cc1)c1ccccc1", "Potency": "inconclusive: 25.1 µM [inhibitor, partial curve]"},
      {"smiles": "COc1ccccc1-c1cc(C(=O)Nc2ccccc2SC)no1", "Potency": "inconclusive: 28.2 µM [inhibitor, single point]"},
      {"smiles": "COc1ccc(-c2cc(C(=O)Nc3ccc(C(N)=O)cc3)c3ccccc3n2)cc1OC", "Potency": "inconclusive: 31.6 µM [inhibitor, partial curve]"},
      {"smiles": "CC[C@H](CO)Nc1nc(Nc2cccc(Cl)c2)c2ncn(C(C)C)c2n1", "Potency": "inconclusive: 5.01 µM [inhibitor, full curve]"},
      {"smiles": "CCOC(=O)C1CCN(CC(=O)Nc2c(C(=O)OC)n(C)c3cccc(C)c23)CC1", "Potency": "inconclusive: 39.8 µM [inhibitor, single point]"},
      {"smiles": "COc1cc(OC)c2ccc(=O)oc2c1C(CCN1CCCC1)c1ccc2c(c1)OCO2", "note": "(stereo not drawn)", "Potency": "inconclusive: 25.1 µM [inhibitor, single point]"},
      {"smiles": "Cc1nc2c(C(=O)NCCC(C)C)c[nH]n2c(=O)c1Cl", "Potency": "inconclusive: 31.6 µM [inhibitor, partial curve]"},
      {"smiles": "COc1cccc(-c2cc(C(=O)Nc3nc4ccccc4s3)c3ccccc3n2)c1", "Potency": "inconclusive: 28.2 µM [inhibitor, single point]"},
      {"smiles": "CCOC(=O)c1c(NC(=O)Cn2nnc3ccccc32)sc2c1CCC(C)C2", "note": "(stereo not drawn)", "Potency": "inconclusive: 39.8 µM [inhibitor, single point]"},
      {"smiles": "COc1ccc(OC)c(NC(=O)C(=O)NNC(=O)c2cccs2)c1", "Potency": "inconclusive: 31.6 µM [inhibitor, single point]"},
      {"smiles": "O=S(=O)(c1cccc(-c2nnco2)c1)N1CCCC1", "activity change, negative = inhibition": "inactive: 3.13%"},
      {"smiles": "CCOC(=O)c1sc(NC(=O)c2cccc(S(=O)(=O)N3CCN(C)CC3)c2)cc1C", "activity change, negative = inhibition": "inactive: -20.1%"},
      {"smiles": "CCOC(=O)C(C)Oc1ccccc1C1NC(=O)NC(C)=C1C(=O)Nc1ccc(C)c(C)c1", "note": "(stereo not drawn)", "Potency": "inconclusive: 17.8 µM [inhibitor, single point]"},
      {"smiles": "CCC(=O)Nc1ccccc1C(=O)OCC(=O)Nc1ccc(S(N)(=O)=O)cc1", "Potency": "inconclusive: 31.6 µM [inhibitor, single point]"},
      {"smiles": "CC(C)CNc1oc(-c2ccco2)nc1C#N", "Potency": "inconclusive: 28.2 µM [inhibitor, partial curve]"}
    ]}
  ]
}
